# Test results from PubChem BioAssay AID686979 (National Center for Advancing Translational Sciences (NCATS), 2013).
# The whole screen tested about 420,000 compounds, of which about 50,000 (12%) were called active. The inconclusive results got no clear call from the source; some entries with a clear call stand among them for comparison. The call rests on the fitted dose curve; in most records, active means well fitted inhibition curve with a large enough effect; inconclusive means small, poorly fitted or top-dose-only effect; inactive means flat fitted curve, though single readings scatter. No potency is given beside an inconclusive call; the fits are too rough.
# Assay: qHTS for Inhibitors of human tyrosyl-DNA phosphodiesterase 1 (TDP1): qHTS in cells in presence of CPT; further: nearly all actives have a fitted effect of over 55% in size
# Conditions: chicken DT40 Tdp1-/-;hTDP1 cells + 20 nM CPT, ATP luminescence, 48 h; series mostly up to 46.2 µM
# Outline: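 Cell growth measured by CellTiter-Glo luminescence after a minimum 48 h, 37 C compound exposure with 20 nM CPT in Tdp1-knockout DT40 cells stably expressing hTDP1, seeded 400/well; qHTS titration format.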
# Potency means the concentration at half of the fitted maximal effect; tags describe the fitted curve by direction and shape.
row,Compound,Potency
1,COc1ccc(CC2(CO)CCN(CC3=Cc4cc(Cl)ccc4OC3)CC2)cc1,active: 13 µM
2,CSc1ccc(CNC(=O)C2(C)CCN2C(C)C)cc1 (stereo not drawn),inactive
3,Cc1ccc(C(=O)Nc2ccc(NC(=O)c3cccs3)cc2)cc1[N+](=O)[O-],"inconclusive [inhibitor, single point]"
4,COCCCNc1nc(NCc2ccccc2OC)c2cnn(C)c2n1,"inconclusive [inhibitor, partial curve]"
5,Cc1ccc(C)c(N2CCN(C(=O)c3cn(CC(C)C)c(=O)c4c3c3ccccc3n4C)CC2)c1,"inconclusive [inhibitor, single point]"
6,COc1ccc(CC(=O)NCc2nnc(SCC(=O)Nc3nccs3)n2C)cc1,inactive
7,CCCCCCN1C[C@H](O)[C@@H](n2cc(C3CC3)nn2)C[C@@H]1c1ccc(C)cc1,"inconclusive [inhibitor, single point]"
8,CCOC(=O)c1cnn2cc(-c3[nH]ncc3[N+](=O)[O-])cnc12,inactive
9,COc1ccc(NC(=O)Cn2c(=O)n(-c3cc(C)cc(C)c3)c(=O)c3oc4ccccc4c32)cc1OC,active: 8.2 µM
10,COC(=O)c1sc(N)c(C(=O)OC)c1COC(=O)[C@@H](NS(=O)(=O)c1cccc(Cl)c1)C(C)C,"inconclusive [inhibitor, single point]"
11,COCc1ccc(CN2CCC(C(=O)Nc3cccc(-c4cscn4)c3)CC2)o1,"inconclusive [inhibitor, single point]"
12,Cc1cc(C)c(NC(=O)CN(C2CCCCC2)C2CCCCC2)c(C)c1,active: 23.1 µM
13,Cc1cccc(Nc2nnc(SCc3cc(=O)n4cc(C)ccc4n3)s2)c1,active: 23.1 µM
14,CCCSC1=C(C#N)C(c2ccc(OC)cc2)C2=C(CC(C)(C)CC2=O)N1 (stereo not drawn),active: 5.17 µM
15,CCc1ccc(OC2(C)CCN(Cc3ccc(SC)cc3)C2)cc1 (stereo not drawn),"inconclusive [inhibitor, single point]"
16,CC(=O)Nc1ccc(-n2c(C)ccc2C)cc1,"inconclusive [inhibitor, single point]"
17,Cc1ccc2c(CNCCc3ccccc3)c(C(=O)O)n(Cc3ccccc3C)c2c1,"inconclusive [inhibitor, single point]"
18,O=C(Nc1cccc(Cl)c1)Nc1nc(-c2ccc(Cl)cc2)cs1,active: 11.6 µM
19,O=C(c1ccc(Cl)cc1)n1cnc2ccccc21,"inconclusive [inhibitor, single point]"
20,O=C(NCCc1ccccc1)c1nn(-c2ccccc2F)nc1CO,"inconclusive [inhibitor, single point]"
21,Cc1nnc(N/N=C/c2cc([N+](=O)[O-])c(N3CCC(C)CC3)cc2N2CCC(C)CC2)n1N,inactive
22,c1ccc2c(c1)CCN(C1=Nc3cccc4cccc1c34)C2,"inconclusive [inhibitor, single point]"
23,CC(c1ccccc1)N1CC(C(=O)N2CCN(c3ccccc3)CC2)CC1=O (stereo not drawn),inactive
24,COc1ccc(NC(=O)CN2CCN(CC(=O)Nc3ccc(F)cc3F)CC2)cc1,inactive
25,CC(C)CC(OC(=O)c1cccs1)C(=O)NCc1ccco1 (stereo not drawn),inactive

row,Compound,Potency
1,CC1(c2ccccc2Cl)NC(=O)N(CC(=O)NCc2ccco2)C1=O (stereo not drawn),inactive
2,Cc1ccc(S(=O)(=O)NNC(=O)C(=O)NNc2ccccn2)cc1,"inconclusive [inhibitor, single point]"
3,COC(=O)Cn1c(=O)c2cccn2c2ccc(F)cc21,inactive
4,COc1cc(NC(=O)c2cc(C3CC3)nc3c2c(C)nn3-c2ccccc2)cc(OC)c1,"inconclusive [inhibitor, single point]"
5,N#Cc1cccc(C(=O)C(=O)N2CCC(Cc3ccccc3)CC2)c1,"inconclusive [inhibitor, single point]"
6,CC(OC(=O)Cn1nnc2ccccc21)C(=O)NC1CCCC1 (stereo not drawn),inactive
7,Cc1ccccc1N1CCN(S(=O)(=O)c2nnc(NC(=O)c3ccc(C(C)C)cc3)s2)CC1,"inconclusive [inhibitor, single point]"
8,CCOC(=O)c1sc(NC(=S)NC(=O)C2CCCC2)cc1C,"inconclusive [inhibitor, single point]"
9,CCOc1ccc(C(=O)Cn2c(=O)n3nc(CCn4nc(C)cc4C)nc3c3cc(OC)c(OC)cc32)cc1,inactive
10,CCn1ncc(C2=NOC(C(=O)Nc3c(C)n(C)n(-c4ccccc4)c3=O)C2)c1C (stereo not drawn),inactive
11,CCN=C(NCC)SC1CC(=O)N(c2ccc(OCC)cc2)C1=O (stereo not drawn),inactive
12,Cc1cccc(N(C)c2nc3ccccc3c3nnc(C)n23)c1,"inconclusive [inhibitor, single point]"
13,O=C(CN1CCC(NC(=O)c2ccccc2F)CC1)NCc1ccc(F)cc1,"inconclusive [inhibitor, single point]"
14,CCOC(=O)C1=CN(Cc2ccc(Br)cc2)S(=O)(=O)NC1C (stereo not drawn),inactive
15,CCc1ccc(N2CC(C(=O)N/N=C/c3ccccc3)CC2=O)cc1 (stereo not drawn),"inconclusive [inhibitor, single point]"
16,CCn1c(N2CCN(C(=S)NCC(C)C)CC2)nc2ccccc21,"inconclusive [inhibitor, single point]"
17,CC1CCc2c(sc(Nc3nc4c(F)cccc4s3)c2C(N)=O)C1 (stereo not drawn),"inconclusive [inhibitor, single point]"
18,Cc1ccc(NC(=O)CSc2nnc(-c3ccc([N+](=O)[O-])cc3)o2)c(C)c1,inactive
19,C[C@]12c3[nH]c4ccccc4c3CCN1C(=O)C(CC(=O)NCc1ccco1)C[C@@H]2C(=O)N1CCCCC1 (stereo partly drawn),"inconclusive [inhibitor, single point]"
20,CC1Cc2ccccc2C[N+]1(C)CC(=O)c1ccc(I)cc1 (stereo not drawn),active: 10 µM
21,O=C(COC(=O)Cn1cnc2ccccc2c1=O)NCc1ccccc1,"inconclusive [inhibitor, single point]"
22,CCCCOc1ccc(-c2cn3ccccc3n2)cc1[N+](=O)[O-],"inconclusive [inhibitor, single point]"
23,CCCCCn1c(NCc2ccc(OC)cc2)nc2ccccc21,active: 16.4 µM
24,O=C(c1cc(C(F)(F)F)cc(C(F)(F)F)c1)N1CCC2(CC1)CCN(c1ccncc1)CC2,active: 25.9 µM
25,O=C(NC1CCCC1)c1cc(-c2ccc(Cl)cc2Cl)on1,inactive

row,Compound,Potency
1,O=C(c1ccc2c3c(cccc13)CC2)C1CCCN(C(=O)c2cccnc2)C1 (stereo not drawn),active: 11.6 µM
2,CN(Cc1ccccc1)c1nnc(N)s1,inactive
3,COC(=O)[C@]12CCCCC=C1N(Cc1cccc3ccccc13)C(=O)[C@H](CC(=O)N1CCCC1)C2,"inconclusive [inhibitor, single point]"
4,CN(C)c1ccc(C=NNC(=O)c2cccc3ccccc23)c(Cl)c1,active: 5.17 µM
5,Nc1c(Cl)ncnc1N1CCCC1,inactive
6,CCCCOc1ccc(N(CC(=O)NC2CCCCC2)C(=O)c2snc(C(N)=O)c2N)cc1,"inconclusive [inhibitor, single point]"
7,CCCN=C(N)/C(C(=O)OCC)=C(\O)c1ccc(OC)cc1,inactive
8,CCc1cccc(NC(=O)CCc2nc3sc4c(c3c(=O)[nH]2)CCCC4)c1,active: 8.2 µM
9,c1ccc(COc2ccc(OCCCn3cncn3)cc2)cc1,"inconclusive [inhibitor, partial curve, poor fit]"
10,Cc1ccc(-c2ccc(/C=N\NC(=O)C3C(=O)NCC3c3ccccc3)o2)cc1Cl (stereo not drawn),"inconclusive [inhibitor, single point]"
11,CCC(C)(C)C1CCC2(CC1)NC(=O)N(CC(=O)N1CCN(C(=O)c3ccco3)CC1)C2=O (stereo not drawn),inactive
12,CCOC(=O)c1ccc(NC(=O)c2cnc3c(-c4ccc(F)cc4)c(C)nn3c2C)cc1,inactive
13,COc1ccc(/C=C/C(=O)OCC(=O)N2CCCCCC2)c(OC)c1,"inconclusive [inhibitor, partial curve, poor fit]"
14,CC(C)CCNC(=O)c1cc2c(s1)-c1ccccc1S(=O)(=O)C2,"inconclusive [inhibitor, single point]"
15,COc1ccccc1OC(C)C(=O)Nc1cccc(-c2nc3ccccc3s2)c1 (stereo not drawn),active: 20.6 µM
16,COc1ccc(-n2nc(C(=O)Nc3ccccn3)c3c4ccccc4n(C)c3c2=O)cc1,inactive
17,COC(=O)c1cccc(CSc2nc3ccccc3[nH]2)c1,"inconclusive [inhibitor, single point]"
18,Cc1cc(C)cc(NC(=O)Cn2c(-c3cncs3)nc3ccccc32)c1,"inconclusive [inhibitor, single point]"
19,CN(C)c1cccc(NC(=O)C2Cc3c(-c4ccc(Cl)cc4)ccnc3O2)c1 (stereo not drawn),"inconclusive [inhibitor, single point]"
20,CC1CN(S(=O)(=O)c2cccc(C(=O)OCCOc3ccccc3)c2)CC(C)O1 (stereo not drawn),active: 20.6 µM
21,COc1ccccc1-n1cc2c([N+](=O)[O-])cc([N+](=O)[O-])cc2n1,"inconclusive [inhibitor, single point]"
22,CCCCn1nnnc1C(c1cc2ccccc2o1)N1CCCN(C(=O)OC(C)(C)C)CC1 (stereo not drawn),"inconclusive [inhibitor, single point]"
23,Cn1cc(C(=O)c2ccc(Cl)cc2Cl)cc1C(=O)N/N=C(\N)COc1cccc(C(F)(F)F)c1,"inconclusive [inhibitor, single point]"
